According to patent publication US20240342197A1, “LIMONENE EFFECTS ON TETRAHYDROCANNABINOL (THC)-INDUCED ANXIETY” (The Johns Hopkins University, priority 2021, published 2024):

Key:
human subject [1] = test: Drug Effect Questionnaire VAS subjective ratings after vaporized THC, d-limonene and their combination; conditions: for anxiety: expected; for mean peak subjective ratings (change-from-baseline) for "paranoid" (VAS): FIG. 4
healthy adult volunteers = test: Previous studies of the dose effects of cannabis (10 mg and 25 mg THC) given by oral ingestion, smoking or vaporization; conditions: oral, smoked and vaporized, infrequent cannabis users
human subject [2] = test: Preliminary studies by the inventors, administration of d-limonene; conditions: either 1-mg or 5-mg d-limonene

Compound | anxiety (human subject [1]; 30-mg THC dose) | mean peak subjective ratings (change-from-baseline) for "paranoid" (VAS) (human subject [1]; THC alone, N=16) | anxiety (human subject [1]; low THC dose (15 mg)) | pleasant drug effects (healthy adult volunteers; 10-mg THC dose) | unpleasant side effects (healthy adult volunteers; 10-mg THC dose) | ratings of pleasant drug effects (healthy adult volunteers; 25-mg THC dose) | unpleasant drug effects, including self-reported ratings of anxiety (healthy adult volunteers; 25-mg THC dose) | mean peak subjective ratings (change-from-baseline) for "anxious" (VAS) (human subject [1]; limonene also administered with THC, versus THC alone, N=16, FIG. 3) | mean peak subjective ratings (change-from-baseline) for "paranoid" (VAS) (human subject [1]; limonene also administered with THC, versus THC alone, N=16) | adverse effects (human subject [2])
CCCCCc1cc(O)c2c(c1)OC(C)(C)[C@@H]1CCC(C)=C[C@@H]21 [THC, (−)-trans-Δ^9-tetrahydrocannabinol] | anxiety in most study subjects, but not severe anxiety | reliably increased | low levels of anxiety may be observed | increase in pleasant drug effects | few unpleasant side effects | no change | significantly increased | – | – | –
C=C(C)[C@H]1CC=C(C)CC1 [d-limonene] | – | – | – | – | – | – | – | reduced in a dose-dependent manner | reduced in a dose-dependent manner | no adverse effects
